# The whole screen tested about 310,000 compounds, of which about 11,000 (3.5%) were called active. Inconclusive means that the source gave no clear call. Such entries were picked first, then a sample of the others. The call rests on the fitted dose curve; in most records, active means well fitted inhibition curve with a large enough effect; inconclusive means small, poorly fitted or top-dose-only effect, or effect the other way; inactive means flat fitted curve, though single readings scatter. Potencies of inconclusive entries are left out as doubtful fits.
# Assay: VP16 counterscreen qHTS for inhibitors of ROR gamma transcriptional activity;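 further: Gal4-VP16 expression switched on by copper sulfate through the metallothionein promoter; nearly all actives have a fitted effect of over 50% in size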
# Conditions: Drosophila S2 Gal4-VP16 UAS-luciferase, luminescence, 20 h; series mostly up to 53.6 µM
# Potency means the concentration at half of the fitted maximal effect; tags describe the fitted curve by direction and shape.
row,SMILES,Potency
1,CCOC(=O)c1c(NC(=O)C2CCCCC2)sc2c1CCN(C(C)C)C2,inactive
2,CCOC(=O)c1cnc(-n2nc(C)cc2C)nc1NCCO,inactive
3,CCN1CCc2c(sc(NC(=O)c3cc4ccccc4cc3OC)c2C(N)=O)C1,active: 5.62 µM
4,O=C(/C=C/c1ccco1)Oc1cccc2cccnc12,active: 4.47 µM
5,CC1=C(SCCC#N)S/C(=C2\SC(C)=C(SCCC#N)S2)S1,"inconclusive [inhibitor, single point]"
6,Cc1cc(CNC(=O)Cc2ccc(F)cc2)c2ccccc2n1,inactive
7,NC1=NC[C@@H](Cc2ccc(O)cc2)N1CCc1cc(C(F)(F)F)cc(C(F)(F)F)c1,inactive
8,Cc1csc(NC(=O)c2ccc(-c3ccc(Cl)cc3Cl)o2)n1,"inconclusive [inhibitor, single point]"
9,Cc1nn(C)c(C(=O)NNC(=S)Nc2ccc(Cl)cc2)c1[N+](=O)[O-],"inconclusive [inhibitor, single point]"
10,Cc1c(C(=O)N2CCC(Cc3ccccc3)CC2)sc2ncnc(N3CCC(C)CC3)c12,inactive
11,Cc1nc(N2CCC(C)CC2)c2c(C)c(C(=O)Nc3ccc(C)c(F)c3)sc2n1,inactive
12,CC(C)(C)NC(=S)NNC(=O)c1ccccc1Cl,active: 1.41 µM
13,CC1(C)C/C(=N\NC(=S)Nc2ccccc2F)c2cc(O)ccc2O1,"inconclusive [inhibitor, single point]"
14,Cc1ccccc1CC1(CO)CCCN(C(=O)c2ccc(F)cc2)C1 (configuration not stated),inactive
15,CCCCCCNC(=O)CNC(=S)N(Cc1cccs1)C1CCCCC1,"inconclusive [inhibitor, single point]"
16,Cc1cc(C(=O)CSc2nc3ccccc3c(=O)[nH]2)c(C)n1CC1CCCO1 (configuration not stated),"inconclusive [inhibitor, single point]"
17,Cc1cc(OCC(C)C)ccc1/C(O)=C1/C(=O)C(=O)N(Cc2cccnc2)C1c1ccncc1 (configuration not stated),"inconclusive [activator, single point]"
18,Cc1nn(C)c(=O)n1-c1ccc(OCc2ccccc2)cc1,"inconclusive [inhibitor, partial curve]"
19,Cn1c(Cn2cnc3ccccc32)nc2ccccc21,"inconclusive [inhibitor, single point]"
20,CCOC(=O)c1cc(-c2ccccc2)sc1NC(=O)C(C)Sc1nnc(N)s1 (configuration not stated),"inconclusive [inhibitor, single point]"
21,COC(=O)c1cn(NC(=O)c2cnccn2)c(=O)c2ccccc12,"inconclusive [inhibitor, single point]"
22,C=CCn1c(COc2ccc(CC)cc2)nnc1SC/C(O)=C(\C#N)c1nc2ccccc2[nH]1,"inconclusive [inhibitor, single point]"
23,O=c1cc(-c2ccccc2)nc2nc(-c3ccco3)[nH]n12,"inconclusive [inhibitor, single point]"
24,O=C(NCCC1=CCCCC1)C1CCN(S(=O)(=O)N2CCCC2)CC1,"inconclusive [activator, full curve]"

row,SMILES,Potency
1,COc1ccc(NC(=O)c2cccc(S(=O)(=O)Nc3ccc(Br)cc3)c2)cn1,"inconclusive [inhibitor, single point]"
2,CCOc1ccc(C(=O)NCc2ccncc2)cc1,inactive
3,O=C(Nc1ccon1)c1ccc(S(=O)(=O)N2CCOCC2)cc1,inactive
4,CSc1ccc(S(=O)(=O)NCc2ccccc2C)cc1,inactive
5,Cc1cc(C)c(OCC(=O)Nc2nc(-c3ccccn3)cs2)c(C)c1,"inconclusive [inhibitor, single point]"
6,O=C(CSc1cccc2cccnc12)N/N=C/c1cccnc1,active: 20 µM
7,CCCc1cc(=O)[nH]c(SCC(=O)c2cc(C)n(CC(F)(F)F)c2C)n1,inactive
8,O=C(CCCN1C(=O)/C(=C/c2ccccc2)SC1=S)Nc1ccc(C(=O)O)c(O)c1,inactive
9,CC(C)c1ccc(/C=N/NC(=O)CN(c2cccc(Cl)c2Cl)S(C)(=O)=O)cc1,"inconclusive [inhibitor, single point]"
10,CCCn1c(=N)n(CC(O)COc2ccc(C)cc2)c2ccccc21 (configuration not stated),"inconclusive [inhibitor, single point]"
11,O=C(CSCc1ccc([N+](=O)[O-])cc1)NC1CC2CCC1C2 (configuration not stated),"inconclusive [inhibitor, single point]"
12,O=[N+]([O-])c1ccc(-c2nnc(S)n2-c2ccccc2)cc1,"inconclusive [activator, single point]"
13,Cc1cccc(NC(=O)NCC2CCN(c3ccc(S(=O)(=O)N4CCOCC4)cc3)CC2)c1,inactive
14,O=C(O)c1ccccc1-c1ccccc1C(=O)Nc1ccc(-c2nc3cc(Cl)ccc3o2)cc1,"inconclusive [activator, partial curve]"
15,CCCC/C=C/C(NC(=O)c1cccs1)c1ccccc1 (configuration not stated),"inconclusive [inhibitor, single point]"
16,O=C(Cc1csc(Nc2nc(=S)[nH]c3ccccc23)n1)N1CCN(c2cccc(Cl)c2)CC1,active: 5.01 µM
17,COc1ccc(OC)c(NC(=O)c2nnn(CC(=O)Nc3ccc4c(c3)OCO4)c2N)c1,inactive
18,CCc1c(C)nc2nc(SCc3ccccc3)[nH]n2c1=O,"inconclusive [inhibitor, single point]"
19,O=C(CSc1nccn1Cc1ccco1)Nc1ccccc1C(F)(F)F,"inconclusive [activator, single point]"
20,COCCCNC(=O)c1c(N)n(-c2ccc3c(c2)OCO3)c2nc3ccccc3nc12,"inconclusive [inhibitor, single point]"
21,CC(C)(C)c1nc(SCC(=O)c2ccccc2)c2ccccc2n1,"inconclusive [activator, single point]"
22,Cc1cccc(-n2c(Cc3ccccc3)n[nH]c2=S)c1,active: 14.1 µM
23,Cc1ccc(S[C@@H](CCN2CC[C@H](C)CCC2=O)c2ccccc2)cc1,inactive
24,COc1ccc(C(C)=O)cc1CSc1nc2ccccc2c(=O)n1-c1ccccc1,"inconclusive [inhibitor, single point]"

row,SMILES,Potency
1,S=c1[nH]nc(COc2cccc(Cl)c2)n1Cc1ccccc1,"inconclusive [inhibitor, partial curve, poor fit]"
2,NNC(=S)Nc1c(Br)cc(F)cc1Br,"inconclusive [inhibitor, single point]"
3,O=C(/C=C/c1ccc[nH]1)c1ccccc1,"inconclusive [activator, full curve]"
4,Cc1ccccc1OCc1n(CC(=O)OC2CC(C)CCC2C(C)C)c2ccccc2[n+]1C (configuration not stated),active: 17.8 µM
5,COc1cc2nc(Nc3ccc(C)c(Cl)c3)nc(N)c2cc1OC,"inconclusive [inhibitor, single point]"
6,COc1cc(C(=O)Nc2nc(C)c(Cc3ccc4c(c3)OCO4)s2)cc(OC)c1OC,"inconclusive [inhibitor, partial curve]"
7,NC(=O)CC(NC(=O)Cc1ccc(Br)cc1)c1ccc(N2CCC(N3CCCCC3)CC2)c([N+](=O)[O-])c1 (configuration not stated),inactive
8,CC(C)c1nc(-c2ccc([N+](=O)[O-])cc2)cs1,inactive
9,O=C(CN1C(=O)S/C(=C\C=C\c2ccccc2)C1=O)Nc1ccc(O)cc1,"inconclusive [inhibitor, single point]"
10,CCOc1ccccc1-n1c(SCC(=O)Nc2ccc(CC)cc2)nc2n[nH]c(C)c2c1=N,"inconclusive [inhibitor, single point]"
11,Cc1cccc(NNC(N)=S)c1,active: 10 µM
12,Cc1cccc(N2CCN(C(=O)c3cc4n(n3)C(C(F)(F)F)CC(c3ccco3)N4)CC2)c1C (configuration not stated),"inconclusive [inhibitor, single point]"
13,O=C(Nc1ccc2ccccc2c1)c1ccc(Cl)cc1Cl,"inconclusive [inhibitor, single point]"
14,CCOc1ccc(NC(=O)CCC(=O)NNC(=O)c2ccccc2Cl)cc1,inactive
15,O=C(c1coc(=O)c(Br)c1)N1CCCc2ccccc21,"inconclusive [inhibitor, single point]"
16,CCn1cc(S(=O)(=O)c2ccc(OC)cc2)c(=O)c2cc(OC)ccc21,"inconclusive [inhibitor, single point]"
17,Cc1cc(N/N=C/c2ccc(O)cc2)nc(NS(=O)(=O)c2ccccc2)n1,"inconclusive [activator, single point]"
18,CCn1c(/C(C#N)=C(\O)CCc2ccccc2)nc2ccccc21,"inconclusive [inhibitor, single point]"
19,CN(C)c1ccc(-c2nnc(-c3ccccc3F)o2)cc1,"inconclusive [inhibitor, single point]"
20,O=C(Nc1nc(-c2cccs2)c(-c2ccccc2)s1)c1ccco1,active: 7.94 µM
21,CCOC(=O)N1CCN(S(=O)(=O)c2ccc3c(c2)SC(C)C(=O)N3)CC1 (configuration not stated),"inconclusive [inhibitor, partial curve]"
22,CC(=O)N1c2ccc(S(=O)(=O)NCC3CCC(C(=O)Nc4cc(C)ccn4)CC3)cc2CC1C (configuration not stated),active: 7.08 µM
23,Clc1cc(NC2CCCCC2)ncn1,"inconclusive [inhibitor, partial curve]"
24,O=C(/C=C/c1ccccc1)NC(=S)NNC(=O)Cc1cccs1,active: 5.01 µM
